# Source: PMC4336329 (PLoS ONE, 2015)
# Screen size: about 310,000 compounds; about 2,200 (0.71%) showed an effect of 50% or more. Effects have a minus sign here. The list shows a part of the results.
# Target: human ether-à-go-go-related gene (hERG) potassium channel (human, UniProt Q12809)
# Experiment: primary screen, population patch clamp on CHO cells stably expressing hERG
# Chain of human ether-à-go-go-related gene (hERG) potassium channel (Q12809 whole entry, looked up): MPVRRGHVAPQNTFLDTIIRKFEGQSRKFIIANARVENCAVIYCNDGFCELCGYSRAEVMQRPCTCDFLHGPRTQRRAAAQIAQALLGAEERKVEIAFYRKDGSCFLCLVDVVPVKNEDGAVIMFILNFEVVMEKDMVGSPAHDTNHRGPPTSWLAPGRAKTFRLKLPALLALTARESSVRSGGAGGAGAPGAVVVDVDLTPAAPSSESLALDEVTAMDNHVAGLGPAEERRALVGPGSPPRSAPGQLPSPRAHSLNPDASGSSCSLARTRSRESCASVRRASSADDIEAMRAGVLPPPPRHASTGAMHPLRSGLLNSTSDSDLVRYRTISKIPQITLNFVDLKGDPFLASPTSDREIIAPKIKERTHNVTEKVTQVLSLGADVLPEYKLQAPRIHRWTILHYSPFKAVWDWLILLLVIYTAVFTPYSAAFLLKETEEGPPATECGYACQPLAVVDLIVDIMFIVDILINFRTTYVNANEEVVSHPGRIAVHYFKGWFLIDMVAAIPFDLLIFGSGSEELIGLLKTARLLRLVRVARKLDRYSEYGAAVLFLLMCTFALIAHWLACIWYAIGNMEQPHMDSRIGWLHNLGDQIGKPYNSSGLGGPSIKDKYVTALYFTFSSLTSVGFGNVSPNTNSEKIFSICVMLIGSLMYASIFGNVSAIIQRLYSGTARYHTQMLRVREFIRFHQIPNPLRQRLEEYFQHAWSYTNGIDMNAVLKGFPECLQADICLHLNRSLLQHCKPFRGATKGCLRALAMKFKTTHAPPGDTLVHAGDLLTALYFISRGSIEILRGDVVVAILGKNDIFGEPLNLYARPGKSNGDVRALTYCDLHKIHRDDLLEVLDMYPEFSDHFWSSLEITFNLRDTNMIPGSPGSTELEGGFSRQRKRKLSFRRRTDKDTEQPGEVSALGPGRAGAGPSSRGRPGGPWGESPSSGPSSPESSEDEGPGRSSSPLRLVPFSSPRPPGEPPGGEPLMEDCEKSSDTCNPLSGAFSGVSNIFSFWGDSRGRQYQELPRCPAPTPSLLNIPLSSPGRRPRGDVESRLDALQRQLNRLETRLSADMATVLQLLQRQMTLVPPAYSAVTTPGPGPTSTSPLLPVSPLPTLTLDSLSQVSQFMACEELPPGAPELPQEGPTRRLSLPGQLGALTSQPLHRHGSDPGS
row,Structure (SMILES),"hERG current change (%, negative = inhibition) at 1uM [%]"
1,O=C(Nc1c2c(nn1-c1ccccc1)CSC2)c1ccc(N2C(=O)CCC2=O)cc1,7.03
2,CC(C)CN1CCC(=O)N([C@H](CN=[N+]=[N-])Cc2ccccc2)CC1,3.89
3,COc1cccc(/C=N/NC(=O)CSCC(=O)Nc2ccccc2)c1O,5.08
4,COc1ccc(Nc2cc(Nc3cccc(OC)c3)ncn2)cc1,14.3
5,CCOc1ccc(NS(=O)(=O)c2ccc(C(=O)N(C)Cc3cccc(OC)c3OC)cc2)cc1,15.1
6,CCOC(=O)CN1C(=O)/C(=C2\SC(=S)N(NC(=O)c3cccnc3)C2=O)c2ccccc21,7.89
7,O=C(NCc1ccco1)C(c1cccs1)N(Cc1ccccc1)C(=O)Cn1nnc2ccccc21 (stereo not shown),2.59
8,C[C@]12CCC3C(CC[C@H]4C[C@H](N)CC[C@]34C)C1CC[C@H]2O.Cl (stereo partly shown),8.71
9,CCC(C)(C)n1nnnc1CN(Cc1ccco1)Cc1cc2cc3c(cc2[nH]c1=O)OCO3,11.3
10,O=C(O)c1cn(-c2ccccc2)nc1-c1ccc(Cl)cc1,2.96
11,Oc1ccc(/C=N/N2CCCCC2)c(O)c1O,10
12,CCc1nc(SCC(=O)NCC2CCCO2)c2oc3ccccc3c2n1 (stereo not shown),12.5
13,CCC(=O)Nc1cccc(C(=O)/C=C/c2cccs2)c1,-3.35
14,CCc1ccc(NC(=O)C(=O)NCc2ccccn2)cc1,8.72
15,O=C(O)c1ccc2c(c1)N(Cc1ccccc1)C(=O)c1ccccc1S2,7.87
16,COC(=O)C(Cc1ccc(OC(=O)c2ccc(C(F)(F)F)cc2)cc1)N1Cc2ccccc2C1=O (stereo not shown),13.8
17,COC(=O)Cc1[nH]nc2c1C1(C(=O)N(Cc3ccc(Cl)cc3)c3ccccc31)C(C#N)=C(N)O2 (stereo not shown),9.65
18,O=C(CCNC(=O)C1CCN(S(=O)(=O)c2ccccc2)CC1)NCCc1cccc(F)c1,13.1
19,CC(NC(=O)c1ccc(N2CCNCC2)c([N+](=O)[O-])c1)C12CC3CC(CC(C3)C1)C2 (stereo not shown),17.2
20,CCCN(CCC)CCCNC(=O)c1cc2c(=O)n(CC)c3ccccc3c2s1,-6.47
21,Cc1ccc(NC(=O)CN(C)C(=O)CSc2nc3ccccc3o2)cc1,-2.45
22,O=C(CSCc1ccc(Cl)cc1)N/N=C/c1c(Cl)cccc1Cl,6.35

row,Structure (SMILES),"hERG current change (%, negative = inhibition) at 1uM [%]"
1,COc1ccc(OC)c(NC(=O)C2CCC(CNc3c(N4CCC(C)CC4)c(=O)c3=O)CC2)c1 (stereo not shown),19.4
2,COc1cc(OC)cc(-c2nc3ccccc3c(=O)n2OC(=O)c2ccc(C)c(C)c2)c1,-3.49
3,CCCCOC(=O)Cn1c2ccc(OC)cc2c2nc3ccccc3nc21,-12.8
4,CCOc1ccc(CN2C(=O)CC(=O)N(S(=O)(=O)c3ccc(OCC)cc3)C2=O)cc1,10.5
5,CCc1ccc(CN2CCSCC2)cc1,10.4
6,Cc1cc(=O)n(-c2ccc(Cl)cc2)c(=O)[nH]1,14.4
7,Cc1ccc(N=Nc2ccc(O)c(/C=N\NC(=O)c3ccc(N)cc3)c2)cc1C,6.52
8,CC(C)(C)OC(=O)N1CCN(c2ccc(NC(=O)Cn3nnc(-c4ccccc4)n3)cc2)CC1.Cl,-1.83
9,COc1ccc(Nc2ccc3c(c2)=NC2(CCCCC2)[N+]=3[O-])cc1,2.24
10,CCOC(=O)NC(=O)/C(C#N)=C\Nc1sccc1C(=O)OC,7.94
11,COC(=O)CN1C(=S)N(c2ccc(Cl)cc2)C(=O)C1CC(=O)Nc1ccc(F)cc1 (stereo not shown),10.9
12,COc1cccc(S(=O)(=O)NCc2ccc(C(=O)Nc3ccc(C)cc3)cc2)c1,5.12
13,CCCn1c(SCC(=O)N(CC)CC)nnc1-c1ccncc1,7.97
14,Cc1sc(N)nc1-c1ccc2c(c1)OCCO2,9.99
15,Cc1cc(N)c2cc(NC(=O)/C=C/c3ccccc3Cl)ccc2n1,-15.4
16,CCCCc1c(O)nc(SCC(=O)c2ccccc2)[nH]c1=O,-3.71
17,O=C1CCN(Cc2ccccc2)N1,19.9
18,Cc1cc(NC(=O)CN2CCN(c3cccc(Cl)c3)CC2)no1,10
19,CCc1ccc2[nH]cc(S(=O)(=O)c3ccc(C)c(C)c3)c(=O)c2c1,14.9
20,Cc1ccc(S(=O)(=O)NCC(=O)OCc2nnc(-c3ccccc3)o2)cc1C,0.172
21,CC(=O)c1cccc(NC(=O)C(=O)Nc2cccc3ccccc23)c1,12.7
